# Some of the results follow. The list includes weakly bound sequences.
# Target: MaxL homodimer (UniProt P61244)
# Experiment: universal protein-binding microarray (PBM)
# Details: PBS-based mixture, 10 nM His-tagged protein dimer, 2% milk, 200 ng/uL BSA, 50 ng/uL salmon testes DNA, 0.02% TX-100; detection with Alexa 488 anti-His …; high values mean tight binding; most listed sequences are background and not binding sites; double strand, one strand shown
# Sequence of UniProt P61244 (P61244 whole entry): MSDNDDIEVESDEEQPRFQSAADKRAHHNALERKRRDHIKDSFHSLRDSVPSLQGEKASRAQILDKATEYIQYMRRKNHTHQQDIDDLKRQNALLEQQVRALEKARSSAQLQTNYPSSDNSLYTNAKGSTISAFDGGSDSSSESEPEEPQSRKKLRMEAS
row,Sequence,binding signal (normalized occupancy)
1,ACAGCCCG,0.0748
2,CGGGGTGC,0.0731
3,CATTGCCA,0.0774
4,CGAAAGCC,0.0679
5,ACAGCGGA,0.0685
6,CTGGGTCA,0.074
7,GCATTAAA,0.0803
8,CATGGCAC,0.0927
9,ACGAAGAT,0.0758
10,ATACAGGG,0.0752
11,CCCCCGGG,0.0648
12,AATAGAAG,0.0752
13,CTGACGAC,0.0726
14,AGCCTTAG,0.0702
15,AGTGCCCG,0.0672
16,GCGGGATA,0.0848
17,CGCGACGC,0.0713
18,CGGTACCA,0.0694
19,CAAGGATC,0.08
20,AGATGTCA,0.0797
21,CATCGGAA,0.0717
22,CTATCTGA,0.0775
23,GCCTCTCA,0.074
24,ATACCGCA,0.0836
25,CTTGCGGC,0.0673

row,Sequence,binding signal (normalized occupancy)
1,ATTCAGGA,0.0738
2,GGTGTGGA,0.0887
3,CGGTCATC,0.0796
4,AGATTTCG,0.0714
5,AGTGCCTG,0.0696
6,CCTACCAA,0.0728
7,CGTAGCAG,0.0734
8,CGAGATGC,0.078
9,GGACCCAC,0.0776
10,TATCCAGA,0.0728
11,ATGGTGCC,0.0838
12,CATGTCGG,0.088
13,CGGGTTCC,0.0676
14,GGAGATTA,0.078
15,ATCTAAGA,0.0766
16,AATATCGT,0.0747
17,CTCGCCAA,0.0718
18,AGAATTCA,0.0757
19,ACACTTTA,0.0737
20,CGAATAAA,0.0729
21,AAACTATT,0.0745
22,CCCATGCG,0.138
23,GAGGTGCC,0.0723
24,GACTACCC,0.0744
25,CATGCATG,0.121

row,Sequence,binding signal (normalized occupancy)
1,CTTCAAGA,0.0727
2,CGGGGGGC,0.0758
3,ATCACCAT,0.0846
4,AATTGTCG,0.0715
5,AGCCTCCA,0.0726
6,CCAAAGAG,0.0706
7,GGTCACAA,0.073
8,AATACCCT,0.0801
9,CGTTGTCA,0.0754
10,ACCATGAC,0.0839
11,AACTGTGC,0.0718
12,CTCGTAAA,0.0717
13,CTTATTCA,0.0766
14,CACAGACC,0.0734
15,CAGCCCGG,0.066
16,CTTGGGGA,0.0767
17,CGATATTA,0.0788
18,GTTGACAA,0.0751
19,CCCCGTCA,0.0738
20,CAGAGCAA,0.0701
21,ATGAGCGC,0.0764
22,GCACGTGA,0.36
23,CTGATAAG,0.0754
24,CCTGGGGC,0.0692
25,ACATGGTC,0.104

row,Sequence,binding signal (normalized occupancy)
1,TCGGGAGA,0.0718
2,TAGAATAA,0.0809
3,CCCAGAAC,0.0683
4,AGCCATAG,0.0728
5,GAGGCCGC,0.0749
6,AATTGTTG,0.076
7,CCCCCCTC,0.0827
8,ACATAGGC,0.0791
9,CCATAGGA,0.0736
10,GGGAGCAC,0.0755
11,ATTTCGGC,0.0731
12,GCAGCCGA,0.0707
13,GTACTCGA,0.0799
14,AGCCTGTG,0.0727
15,GTGTTCCA,0.0781
16,AGTCGGGC,0.0682
17,CTACGCAC,0.0773
18,ACTCCGAT,0.0792
19,ACGTCAAT,0.0802
20,AAGCCACT,0.0744
21,AAAATGGT,0.078
22,CAAGAGAA,0.074
23,ATGTCGCA,0.0861
24,CGATCGAG,0.0669
25,GCCACAGC,0.0723

row,Sequence,binding signal (normalized occupancy)
1,AATTGGGG,0.0815
2,CAGCGATC,0.0736
3,ATACCTTG,0.0801
4,ACCTCGAC,0.0703
5,CCTTCAAA,0.0731
6,CAAACGTG,0.103
7,CGCACAAA,0.0718
8,CTGCCTAA,0.075
9,CCTTTTTA,0.0709
10,ACCAGACC,0.0739
11,ACGTTACC,0.0793
12,CTGTACGC,0.071
13,CTTTATAC,0.082
14,ATGCTCTG,0.0732
15,ACGAGGTA,0.0848
16,GATATATC,0.0839
17,GTTTGTAA,0.0738
18,AACCGCCT,0.069
19,TCCACCCA,0.0839
20,CCTTTTTC,0.0709
21,CAGTCGAA,0.0675
22,ATCGGGTC,0.0688
23,AGGAGATG,0.0762
24,CCTTGGGA,0.0682
25,ATATGACA,0.083

row,Sequence,binding signal (normalized occupancy)
1,AAGGCGTA,0.0716
2,GACCTCCA,0.0723
3,ACTTCATC,0.0786
4,TGACTGAA,0.0747
5,GGCCCGAA,0.0683
6,GTACGTAC,0.0795
7,CAAACCTA,0.0722
8,CCCACGGA,0.0758
9,GGTTACTA,0.0725
10,ATATCTCA,0.081
11,AAGTAAGG,0.0781
12,GAACCAGA,0.0689
13,GGACGCTA,0.073
14,CCTATAAG,0.0806
15,GGTTACCA,0.0757
16,GAATGCCA,0.0708
17,GTGCAGAA,0.0873
18,ATACTGAA,0.0782
19,CGCTCGCA,0.0724
20,GACACAAA,0.0763
21,CTCGTCCA,0.0692
22,ACTCGAAA,0.0716
23,GATGAATA,0.0846
24,AATGGGCC,0.0731
25,CCGTCCGA,0.065

row,Sequence,binding signal (normalized occupancy)
1,CACAATGG,0.0783
2,CGCTAGCG,0.0644
3,ATCATCTG,0.0826
4,ATATGCTA,0.0871
5,CCAAAATC,0.0749
6,GACGCGTA,0.0737
7,ATTTATCG,0.0754
8,AATCTCAA,0.0737
9,ACGGGCCA,0.0729
10,CAGGAGTC,0.0756
11,AAGCACCT,0.0743
12,AAATATGA,0.081
13,CCCACATC,0.0807
14,AGCGAGCA,0.0742
15,CTAGTAAA,0.0729
16,AACCTTCT,0.068
17,CCCTTTGA,0.0746
18,CACGAAAG,0.0757
19,GGGACAGA,0.0775
20,GCGTGCTA,0.117
21,CGTACGCA,0.0775
22,CCTTTCTC,0.0748

# Reference: publication PMC4242493
